Measured values published in the supplement of paper PMC12355420.
Where “and” joins values, the source holds several entries; their conditions need not be identical. Equal values may be shown once. Where a name gives a salt, the structure may show the parent alone. This is one part of the list. No stated cut-off is given here; in the data, active = 0.5 or less and inactive = the rest. Repeats are few or missing, and single values can be far off.

system: HeLa VPS33A R498W KI + HA-SDC1-FLAG; test: relative GAG core protein HA-SDC1 amount per cell number vs DMSO (fraction of DMSO); HeLa model of a glycosaminoglycan (GAG) storage disease; KI is knock-in and KO knock-out; SDC1 is syndecan 1; higher = more SDC1 (GAG core protein); details: 50 µM; 24 h
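Further: HA-SDC1 level read out by In-Cell Western staining with an anti-HA antibody against the N-terminal tag, screening FDA-approved library drugs.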

Relative GAG core protein HA-SDC1 amount per cell number, active:
CCOC(=O)N1CCC(=C2c3ccc(Cl)cc3CCc3cccnc32)CC1 [Loratadine] 0.474
O=C1C(=O)c2ccccc2C(O)=C1C1CCC(c2ccc(Cl)cc2)CC1 (stereo not given) [Atovaquone] 0.468
Cc1ccc(C(=O)c2cc(O)c(O)c([N+](=O)[O-])c2)cc1 [Tolcapone] 0.467
NC(=O)C(c1ccccc1)(c1ccccc1)[C@@H]1CCN(CCc2ccc3c(c2)CCO3)C1 [Darifenacin HBr] 0.28
O=C1Nc2ccc(Cl)cc2[C@@](C#CC2CC2)(C(F)(F)F)O1 [Efavirenz] 0.485

Relative GAG core protein HA-SDC1 amount per cell number, inactive:
CC1=C(C(=O)O)N2C(=O)[C@@H](NC(=O)[C@H](N)c3ccc(O)cc3)[C@H]2SC1 [Cefadroxil (hydrate)] 0.865
O=C(Nc1cnn2ccc(N3CCC[C@@H]3c3cc(F)ccc3F)nc12)N1CC[C@H](O)C1 0.943
C[C@H](C(=O)O)c1cccc(C(=O)c2ccccc2)c1 [(S)-Ketoprofen] 0.82
CN1C2CCC1CC(OC(=O)C(O)c1ccccc1)C2 (stereo not given) [Homatropine Bromide] 0.672
COC(=O)N(C)c1c(N)nc(-c2nn(Cc3ccccc3F)c3ncccc23)nc1N [Riociguat] 1.21
Cc1ncc([N+](=O)[O-])n1CCO [Metronidazole] 1.04
COc1c(N2C[C@@H]3CCCN[C@@H]3C2)c(F)cc2c(=O)c(C(=O)O)cn(C3CC3)c12 [Moxifloxacin HCl] 1.37
CC1(C)[C@H](C(=O)O)N2C(=O)C[C@H]2S1(=O)=O [Sulbactam sodium] 1
CC(C)[N+]1(C)[C@@H]2CC[C@H]1C[C@@H](OC(=O)C(CO)c1ccccc1)C2 (stereo not given in full) [Ipratropium Bromide] 1.8
CC(C)(C)NC[C@H](O)COc1nsnc1N1CCOCC1 [Timolol Maleate] 1.05
O=C1CN(/N=C/c2ccc(-c3ccc([N+](=O)[O-])cc3)o2)C(=O)N1 [Dantrolene, sodium salt] 0.822
O=S(=O)(O)CCS [Mesna] 1.23
CC(C)CN(C[C@@H](O)[C@H](Cc1ccccc1)NC(=O)O[C@H]1CO[C@H]2OCC[C@H]21)S(=O)(=O)c1ccc(N)cc1 [Darunavir] 1.16
CC1(C)[C@H](C(=O)O)N2C(=O)C[C@H]2S1(=O)=O [Sulbactam] 0.952
CC(C)(O/N=C(\C(=O)N[C@@H]1C(=O)N2C(C(=O)[O-])=C(C[n+]3ccccc3)CS[C@H]12)c1csc(N)n1)C(=O)O [Ceftazidime] 0.97 and 0.896
Cc1occc(=O)c1O [3-Hydroxy-2-methyl-4H-pyran-4-one] 0.892
O=S(=O)(O)c1cc(O)ccc1O [Ethamsylate] 0.916
Cc1cc(/C=C/C#N)cc(C)c1Nc1ccnc(Nc2ccc(C#N)cc2)n1 [Rilpivirine] 1.01
Cc1nnc(SCC2=C(C(=O)O)N3C(=O)[C@@H](NC(=O)Cn4cnnn4)[C@H]3SC2)s1 [Cefazolin (sodium salt)] 0.841
CN[C@@H]1[C@H](O)[C@H](NC)[C@H]2O[C@@]3(O)C(=O)C[C@@H](C)O[C@H]3O[C@@H]2[C@H]1O [Spectinomycin dihydrochloride] 0.955
Cc1cc(=O)oc2cc(O)ccc12 [4-Methylumbelliferone (4-MU)] 0.946
CC12CC3CC(C)(C1)CC(N)(C3)C2 [Memantine hydrochloride] 0.653
COc1ccc(/C=C\c2cc(OC)c(OC)c(OC)c2)cc1OP(=O)(O)O [Fosbretabulin (Combretastatin A4 Phosphate (CA4P)) Disodium] 0.647
C#C[C@]1(O)CC[C@H]2[C@@H]3CCc4cc(OC5CCCC5)ccc4[C@H]3CC[C@@]21C [Quinestrol] 0.785
OC[C@H]1O[C@H](O[C@]2(CCl)O[C@H](CCl)[C@@H](O)[C@@H]2O)[C@H](O)[C@@H](O)[C@H]1Cl [Sucralose] 0.696
C[C@H](Cc1cc2c(c(C(N)=O)c1)N(CCCO)CC2)NCCOc1ccccc1OCC(F)(F)F [Silodosin] 0.782
CCCNC(=O)NS(=O)(=O)c1ccc(Cl)cc1 [Chlorpropamide] 1.2
Nc1c(CC(=O)O)cccc1C(=O)c1ccccc1 [Amfenac Sodium Monohydrate] 1.08
CC(C(=O)O)c1cccc(C(=O)c2ccccc2)c1 (stereo not given) [Ketoprofen] 0.644
CC(C)CN(C[C@@H](O)[C@H](Cc1ccccc1)NC(=O)O[C@H]1CO[C@H]2OCC[C@H]21)S(=O)(=O)c1ccc(N)cc1 [Darunavir Ethanolate] 0.723
CCCC(=O)OCOC(=O)C1=C(C)NC(C)=C(C(=O)OC)C1c1cccc(Cl)c1Cl (stereo not given) [Clevidipine Butyrate] 1.07
CNS(=O)(=O)Cc1ccc2[nH]cc(CCN(C)C)c2c1 [Sumatriptan Succinate] 1.43
CCCN[C@H]1CCc2nc(N)sc2C1 [Pramipexole dihydrochloride] 1.32
CC(=O)Nc1ccccc1 [Acetanilide] 0.892
Cc1nnc(NS(=O)(=O)c2ccc(N)cc2)s1 [Sulfamethizole] 0.763
